# Source: PubChem BioAssay AID938 (National Center for Advancing Translational Sciences (NCATS), 2007)
# Screen size: about 73,000 compounds; about 1,800 (2.5%) were called active. The inconclusive results got no clear call from the source; some entries with a clear call stand among them for comparison. Calls follow the shape of the dose curve; as a rule, active = well fitted activation curve with a large enough effect; inconclusive = small, poorly fitted or top-dose-only effect; inactive = no such curve, though single readings can be large or run the other way. No potency is given beside an inconclusive call; the fits are too rough.
# Test: qHTS Assay for Agonists of the Thyroid Stimulating Hormone Receptor: Activators of Intracellular cAMP Concentrations in Parental HEK 293; also: nearly all actives have a fitted effect of over 55% in size; as to activation: % of control where 0% means no effect
# Details: parental HEK293 CNG cAMP sensor, membrane potential fluorescence; activation: at 57.1 µM (top of the series) unless noted
# Summary of the method: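 Parental HEK 293 cells stably expressing a cAMP-gated CNG channel were loaded with membrane potential dye containing 100 uM RO 20-1724 for 60 min. Compound added for 30 min; depolarization read as fluorescence intensity at 590 nm.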
# Potency is read from the fitted curve at half-maximal effect; tags tell the direction and shape of the fitted curve.
Structure (SMILES),Potency,activation
CC1CCc2sc3nc(N4CCN(CCO)CC4)n4ncnc4c3c2C1 (centres undefined),"inconclusive [activator, partial curve]",
CCC(=O)Nc1nc2ccc(NC(C)=O)cc2s1,inactive,
Cc1noc(C)c1-c1nc(NCc2cccs2)c2ccccc2n1,"inconclusive [activator, single point]",
O=S1(=O)N=C(Nc2nc3c(s2)CCCC3)c2ccccc21,inactive,
COc1ccc(CN(C2CCCC2)S(=O)(=O)c2ccc(-n3cnnn3)cc2)cc1,"inconclusive [activator, single point]",
CCn1c(SCC(=O)Nc2nc(-c3ccccc3)cs2)nnc1-c1ccccc1,"inconclusive [activator, single point]",
Nc1ccccc1C(=O)/C=C\c1ccc2c(c1)OCO2,,inactive: 24.1% [at 11.4 µM]
Cc1ccc2c(c1)N(CC(=O)O)C(=O)CO2,"inconclusive [activator, single point]",
CC1CCCCN1Cc1nc2c(c(=O)n(C)c(=O)n2C)n1CCc1ccccc1 (centres undefined),"inconclusive [activator, partial curve]",
CCOc1ccc2nc(N3CCC(C(=O)N4CCN(C5CCCCC5)CC4)CC3)sc2c1,inactive,
COC(=O)C/C=C/C(C)C(OCc1cccc(Br)c1)C(C)C(OC)C1CCCCC1 (centres undefined),,inactive: 6.16% [at 11.4 µM]
CC(CCc1ccco1)NC(=O)c1cc2c(-c3ccccc3F)nn(C)c2s1 (centres undefined),"inconclusive [activator, single point]",
COC(=O)[C@@]1(Cc2ccc(OC)cc2)[C@H]2c3cc(C(=O)N4CCCC4)n(CCN4CCOCC4)c3C[C@H]2CN1C(=O)c1ccccc1,active: 20 µM,
CC(=O)Nc1cccc(-c2nnc(-c3ccccc3)o2)c1,"inconclusive [activator, single point]",
N#Cc1nc(COc2ccccc2F)oc1NCc1ccc(F)cc1,"inconclusive [activator, full curve, poor fit]",
O=c1c2nnn(Cc3ccccc3)c2ncn1C/C=C/c1ccccc1,"inconclusive [activator, partial curve]",
Cc1ccc(CNC(=O)[C@H](C)[C@@H]2C[C@@]2(C)[C@@H](NC(=O)OCc2ccccc2)c2ccccc2)o1,"inconclusive [activator, single point]",
COc1nc(-c2ccccc2)ccc1-c1noc(COc2ccccc2)n1,active: 31.6 µM,
Cc1ccc(/C(O)=C2\C(=O)C(=O)N(c3cc(C)on3)C2c2cccc(Cl)c2)cc1 (centres undefined),"inconclusive [activator, partial curve]",
